Residue numbers refer to the chain shown, from its start. Some of the results follow.
B1: GAGGAAG (DNA:RNA)
RNA: GGGAGACCGGAAUUCAGAUUGUCCGAGGAAGUUAAAUCCCGUCGUAGCCACCA
DNA 1: CAATCTGAATTCCGGTCTCCC
DNA 2: TGGTGGCTACGACGGGATT
B2: AAAGUAG (DNA:RNA)
RNA: B1 RNA with G25A, G27A, A29U
DNA 1: CAATCTGAATTCCGGTCTCCC
DNA 2: TGGTGGCTACGACGGGATT
B3: GGCUUUA (DNA:RNA)
RNA: B1 RNA with A26G, G27C, G28U, A29U, A30U, G31A
DNA 1: CAATCTGAATTCCGGTCTCCC
DNA 2: TGGTGGCTACGACGGGATT
B4: GGAUCUU (DNA:RNA)
RNA: B1 RNA with A26G, G27A, G28U, A29C, A30U, G31U
DNA 1: CAATCTGAATTCCGGTCTCCC
DNA 2: TGGTGGCTACGACGGGATT
B5: GCCAGAG (DNA:RNA)
RNA: B1 RNA with A26C, G27C, G28A, A29G
DNA 1: CAATCTGAATTCCGGTCTCCC
DNA 2: TGGTGGCTACGACGGGATT
B6: UUUACAG (DNA:RNA)
RNA: B1 RNA with G25U, A26U, G27U, G28A, A29C
DNA 1: CAATCTGAATTCCGGTCTCCC
DNA 2: TGGTGGCTACGACGGGATT
B7: AAGUAAG (DNA:RNA)
RNA: B1 RNA with G25A, G28U
DNA 1: CAATCTGAATTCCGGTCTCCC
DNA 2: TGGTGGCTACGACGGGATT
B8: AACCUCC (DNA:RNA)
RNA: B1 RNA with G25A, G27C, G28C, A29U, A30C, G31C
DNA 1: CAATCTGAATTCCGGTCTCCC
DNA 2: TGGTGGCTACGACGGGATT
B9: AGGUUAU (DNA:RNA)
RNA: B1 RNA with G25A, A26G, G28U, A29U, G31U
DNA 1: CAATCTGAATTCCGGTCTCCC
DNA 2: TGGTGGCTACGACGGGATT
B10: UUAGAGU (DNA:RNA)
RNA: B1 RNA with G25U, A26U, G27A, A30G, G31U
DNA 1: CAATCTGAATTCCGGTCTCCC
DNA 2: TGGTGGCTACGACGGGATT
B11: UCCGGGC (DNA:RNA)
RNA: B1 RNA with G25U, A26C, G27C, A29G, A30G, G31C
DNA 1: CAATCTGAATTCCGGTCTCCC
DNA 2: TGGTGGCTACGACGGGATT
B12: AAAAAUU (DNA:RNA)
RNA: B1 RNA with G25A, G27A, G28A, A30U, G31U
DNA 1: CAATCTGAATTCCGGTCTCCC
DNA 2: TGGTGGCTACGACGGGATT
B13: AUAAUUU (DNA:RNA)
RNA: GGGAGACCGGAAUUCAGAUUGUCCAUAAUUUUUAAAUCCCGUCGUAGCCACCA
DNA 1: CAATCTGAATTCCGGTCTCCC
DNA 2: TGGTGGCTACGACGGGATT
B14: CGAUUGG (DNA:RNA)
RNA: B13 RNA with A25C, U26G, A28U, U30G, U31G
DNA 1: CAATCTGAATTCCGGTCTCCC
DNA 2: TGGTGGCTACGACGGGATT
B15: AUAAAGG (DNA:RNA)
RNA: B13 RNA with U29A, U30G, U31G
DNA 1: CAATCTGAATTCCGGTCTCCC
DNA 2: TGGTGGCTACGACGGGATT
B16: CGUCUCC (DNA:RNA)
RNA: B13 RNA with A25C, U26G, A27U, A28C, U30C, U31C
DNA 1: CAATCTGAATTCCGGTCTCCC
DNA 2: TGGTGGCTACGACGGGATT
B17: CGUGUCC (DNA:RNA)
RNA: B13 RNA with A25C, U26G, A27U, A28G, U30C, U31C
DNA 1: CAATCTGAATTCCGGTCTCCC
DNA 2: TGGTGGCTACGACGGGATT
B18: UUGGUGA (DNA:RNA)
RNA: B13 RNA with A25U, A27G, A28G, U30G, U31A
DNA 1: CAATCTGAATTCCGGTCTCCC
DNA 2: TGGTGGCTACGACGGGATT
B19: GGAGAGC (DNA:RNA)
RNA: B1 RNA with A26G, G27A, A30G, G31C
DNA 1: CAATCTGAATTCCGGTCTCCC
DNA 2: TGGTGGCTACGACGGGATT
B20: AGUGCAU (DNA:RNA)
RNA: B13 RNA with U26G, A27U, A28G, U29C, U30A
DNA 1: CAATCTGAATTCCGGTCTCCC
DNA 2: TGGTGGCTACGACGGGATT
B21: CCACUUA (DNA:RNA)
RNA: B13 RNA with A25C, U26C, A28C, U31A
DNA 1: CAATCTGAATTCCGGTCTCCC
DNA 2: TGGTGGCTACGACGGGATT
B22: CCCAAAA (DNA:RNA)
RNA: B1 RNA with G25C, A26C, G27C, G28A, G31A
DNA 1: CAATCTGAATTCCGGTCTCCC
DNA 2: TGGTGGCTACGACGGGATT
B23: UGGCGUU (DNA:RNA)
RNA: B13 RNA with A25U, U26G, A27G, A28C, U29G
DNA 1: CAATCTGAATTCCGGTCTCCC
DNA 2: TGGTGGCTACGACGGGATT
B24: AAGUUUU (DNA:RNA)
RNA: B13 RNA with U26A, A27G, A28U
DNA 1: CAATCTGAATTCCGGTCTCCC
DNA 2: TGGTGGCTACGACGGGATT
B25: GUUCGAC (DNA:RNA)
RNA: B1 RNA with A26U, G27U, G28C, A29G, G31C
DNA 1: CAATCTGAATTCCGGTCTCCC
DNA 2: TGGTGGCTACGACGGGATT
B26: AGGAGCG (DNA:RNA)
RNA: B13 RNA with U26G, A27G, U29G, U30C, U31G
DNA 1: CAATCTGAATTCCGGTCTCCC
DNA 2: TGGTGGCTACGACGGGATT
B27: ACUGCUG (DNA:RNA)
RNA: B13 RNA with U26C, A27U, A28G, U29C, U31G
DNA 1: CAATCTGAATTCCGGTCTCCC
DNA 2: TGGTGGCTACGACGGGATT
B28: GAUAAGA (DNA:RNA)
RNA: B1 RNA with G27U, G28A, A30G, G31A
DNA 1: CAATCTGAATTCCGGTCTCCC
DNA 2: TGGTGGCTACGACGGGATT
B29: AAUCACA (DNA:RNA)
RNA: B1 RNA with G25A, G27U, G28C, A30C, G31A
DNA 1: CAATCTGAATTCCGGTCTCCC
DNA 2: TGGTGGCTACGACGGGATT
B30: CUUGCAU (DNA:RNA)
RNA: B13 RNA with A25C, A27U, A28G, U29C, U30A
DNA 1: CAATCTGAATTCCGGTCTCCC
DNA 2: TGGTGGCTACGACGGGATT
B31: GCGACCA (DNA:RNA)
RNA: B1 RNA with A26C, G28A, A29C, A30C, G31A
DNA 1: CAATCTGAATTCCGGTCTCCC
DNA 2: TGGTGGCTACGACGGGATT

Each binder was assayed against T1, RBFOX1 RRM RbFoxmut (Fox-RRM*) (Homo sapiens, UniProt Q9NWB1 109-208, R118D;E147R;N151S;E152T) (assay: EMSA; HiTS-Eq, 1 nM pool, 10 min; buffer printed only for the single-RNA assays: 10 mM Tris pH 7.5, 150 mM NaCl, 3.4 mM EDTA, 0.001% NP-40, 30 C). Conditions: tags: His6 N-terminal (pET28a); label: 5' 32P.
T1 sequence: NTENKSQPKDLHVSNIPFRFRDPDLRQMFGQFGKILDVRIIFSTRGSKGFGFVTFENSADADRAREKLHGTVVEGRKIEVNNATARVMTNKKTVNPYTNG
Outline: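 These values rest on relative association constants, computed from read-count changes of each RNA species versus the control reaction and normalised to the cognate motif. Reads came from free RNA recovered by 8% native PAGE after purified RbFox RRM (wild type or mutant) at increasing concentrations was equilibrated for 10 min in 50 µL with 1 nM of a 5′-radiolabelled pool with 7 randomized nucleotides and DNA-annealed flanks.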

| Binder | binding signal |
| --- | --- |
| B1 | 0.0941 KA relative to UGCAUGU |
| B2 | 0.136 KA relative to UGCAUGU |
| B3 | 0.0865 KA relative to UGCAUGU |
| B4 | 0.104 KA relative to UGCAUGU |
| B5 | 0.114 KA relative to UGCAUGU |
| B6 | 0.0734 KA relative to UGCAUGU |
| B7 | 0.119 KA relative to UGCAUGU |
| B8 | 0.0508 KA relative to UGCAUGU |
| B9 | 0.102 KA relative to UGCAUGU |
| B10 | 0.151 KA relative to UGCAUGU |
| B11 | 0.045 KA relative to UGCAUGU |
| B12 | 0.0756 KA relative to UGCAUGU |
| B13 | 0.103 KA relative to UGCAUGU |
| B14 | 0.143 KA relative to UGCAUGU |
| B15 | 0.0735 KA relative to UGCAUGU |
| B16 | 0.0476 KA relative to UGCAUGU |

| Binder | binding signal |
| --- | --- |
| B17 | 0.0868 KA relative to UGCAUGU |
| B18 | 0.0857 KA relative to UGCAUGU |
| B19 | 0.0739 KA relative to UGCAUGU |
| B20 | 0.119 KA relative to UGCAUGU |
| B21 | 0.0992 KA relative to UGCAUGU |
| B22 | 0.0741 KA relative to UGCAUGU |
| B23 | 0.112 KA relative to UGCAUGU |
| B24 | 0.105 KA relative to UGCAUGU |
| B25 | 0.105 KA relative to UGCAUGU |
| B26 | 0.174 KA relative to UGCAUGU |
| B27 | 0.104 KA relative to UGCAUGU |
| B28 | 0.0718 KA relative to UGCAUGU |
| B29 | 0.0701 KA relative to UGCAUGU |
| B30 | 0.146 KA relative to UGCAUGU |
| B31 | 0.0669 KA relative to UGCAUGU |
